Results as given in a compilation of properties of binary mixtures (doi:10.1016/j.fluid.2015.01.011).
The densities may have been worked out from excess volumes.

Assay: xn = mol fraction of the nth substance listed
Conditions: 100 kPa

CC[n+]1ccn(C)c1.N#C[S-] + CC[n+]1ccn(C)c1.N#C[N-]C#N
x1 = 1
Conditions	mass density [kg/m3]
298.15 K	1115.6
303.15 K	1112.5
308.15 K	1109.5
313.15 K	1106.5
323.15 K	1100.6
333.15 K	1094.8
348.15 K	1085.9
353.15 K	1082.7

CC[n+]1ccn(C)c1.N#C[N-]C#N + CC[n+]1ccn(C)c1.N#C[S-]
mass density [kg/m3]
Conditions	x2 = 0	x2 = 0.2585	x2 = 0.5112	x2 = 0.7603
298.15 K	1100.8	–	1108.5	1112.2
303.15 K	1097.4	1101.4	1105.3	1109.1
308.15 K	1094.2	–	1102.2	1106
313.15 K	1090.9	1095	1099	1102.9
318.15 K	–	1091.8	1096	–
323.15 K	1084.6	1088.7	–	1097
328.15 K	1081.4	–	1089.8	1094
333.15 K	–	1082.5	1086.8	1091
338.15 K	1075.1	–	1083.7	1088.1
343.15 K	1071.9	1076.3	1080.7	1085.1
348.15 K	1068.7	1073.2	–	1082.1
353.15 K	1065.3	1070.1	1074.5	–

CC[n+]1ccn(C)c1.N#C[S-] + CCOS(=O)(=O)[O-].CC[n+]1ccn(C)c1
mass density [kg/m3]
Conditions	x1 = 0.199	x1 = 0.32	x1 = 0.429	x1 = 0.67	x1 = 0.899	x1 = 0.9505	x1 = 1
298.15 K	1226.6	1214.5	1198.7	–	1133.5	1123.5	1115.6
303.15 K	1223.3	1211.2	1195.5	1164.5	1130.4	1120.4	1112.5
308.15 K	–	1208	1192.4	1161.4	1127.4	1117.4	1109.5
313.15 K	1220.1	1208	–	1161.4	1127.4	1117.4	1109.5
318.15 K	1216.9	1204.8	1189.2	1158.5	1124.4	–	1106.5
323.15 K	1210.5	1198.5	1183	1152.4	–	1108.3	1100.6
328.15 K	1207.3	1195.3	–	1149.4	1115.1	1105.3	1097.7
333.15 K	1204.2	–	1176.7	1146.3	1112.1	1102.4	1094.8
338.15 K	1201	1189.1	1173.6	1143.2	–	1099.4	1091.9
343.15 K	1197.8	–	–	1140.1	1105.7	1096.5	1088.9
348.15 K	1194.5	1182.9	1167.1	1137	1102.6	–	1085.9
353.15 K	1191	1179.8	1163.8	1133.9	1099.7	1090.6	1082.7

CCOS(=O)(=O)[O-].CC[n+]1ccn(C)c1 + CC[n+]1ccn(C)c1.N#C[S-]
x2 = 0
Conditions	mass density [kg/m3]
298.15 K	1238.4
303.15 K	1235.1
308.15 K	1231.7
313.15 K	1231.7
318.15 K	1228.4
323.15 K	1221.9
328.15 K	1218.7
333.15 K	1215.5
338.15 K	1212.2
343.15 K	1208.9
348.15 K	1205.4

CC[n+]1ccn(C)c1.N#C[S-] + [N-]=C=S.[NH4+]
x2 = 0
Conditions	mass density [kg/m3]
298.15 K	1115.6
303.15 K	1112.5
308.15 K	1109.5
313.15 K	1106.5
318.15 K	1103.6
328.15 K	1097.7
333.15 K	1094.8
338.15 K	1091.9
343.15 K	1088.9

[N-]=C=S.[NH4+] + CC[n+]1ccn(C)c1.N#C[S-]
mass density [kg/m3]
Conditions	x1 = 0.039	x1 = 0.099	x1 = 0.1395
298.15 K	1115.8	1116.8	1116
303.15 K	1112.7	1113.8	1113
308.15 K	1109.7	1110.8	1110
313.15 K	–	1107.8	1107
318.15 K	–	1104.9	–
323.15 K	1100.9	1102	–
328.15 K	–	1099.1	1098.4
333.15 K	1095	–	1095.5
338.15 K	1092	1093.4	1092.6
343.15 K	1089	1090.5	–
348.15 K	1085.9	–	1087.1
353.15 K	1082.7	–	–
